Measured values reported in PubChem BioAssay AID1347165 (National Center for Advancing Translational Sciences (NCATS), 2019).
Screen size: about 220,000 compounds; about 5,700 (2.6%) were called active. The inconclusive results got no clear call from the source; some entries with a clear call stand among them for comparison. Calls come from the whole dose curve; as a rule, active = well fitted inhibition curve with a large enough effect; inconclusive = small, poorly fitted or top-dose-only effect; inactive = no such curve, though single readings can be large or run the other way. A potency beside an inconclusive call is a rough fit, not a confirmed value.

What follows are compounds tested against Lysine-specific demethylase 5B (Homo sapiens) (UniProt Q9UGL1) (assay: Primary screen for KDM5B Histone Demethylases FDH-coupled qHTS). Conditions: FDH-coupled NADH fluorescence (FDH is formaldehyde dehydrogenase); activity change, negative = inhibition: at 57.7 µM (top of the series) unless noted.
Sequence of UniProt Q9UGL1 (Q9UGL1 whole entry, looked up): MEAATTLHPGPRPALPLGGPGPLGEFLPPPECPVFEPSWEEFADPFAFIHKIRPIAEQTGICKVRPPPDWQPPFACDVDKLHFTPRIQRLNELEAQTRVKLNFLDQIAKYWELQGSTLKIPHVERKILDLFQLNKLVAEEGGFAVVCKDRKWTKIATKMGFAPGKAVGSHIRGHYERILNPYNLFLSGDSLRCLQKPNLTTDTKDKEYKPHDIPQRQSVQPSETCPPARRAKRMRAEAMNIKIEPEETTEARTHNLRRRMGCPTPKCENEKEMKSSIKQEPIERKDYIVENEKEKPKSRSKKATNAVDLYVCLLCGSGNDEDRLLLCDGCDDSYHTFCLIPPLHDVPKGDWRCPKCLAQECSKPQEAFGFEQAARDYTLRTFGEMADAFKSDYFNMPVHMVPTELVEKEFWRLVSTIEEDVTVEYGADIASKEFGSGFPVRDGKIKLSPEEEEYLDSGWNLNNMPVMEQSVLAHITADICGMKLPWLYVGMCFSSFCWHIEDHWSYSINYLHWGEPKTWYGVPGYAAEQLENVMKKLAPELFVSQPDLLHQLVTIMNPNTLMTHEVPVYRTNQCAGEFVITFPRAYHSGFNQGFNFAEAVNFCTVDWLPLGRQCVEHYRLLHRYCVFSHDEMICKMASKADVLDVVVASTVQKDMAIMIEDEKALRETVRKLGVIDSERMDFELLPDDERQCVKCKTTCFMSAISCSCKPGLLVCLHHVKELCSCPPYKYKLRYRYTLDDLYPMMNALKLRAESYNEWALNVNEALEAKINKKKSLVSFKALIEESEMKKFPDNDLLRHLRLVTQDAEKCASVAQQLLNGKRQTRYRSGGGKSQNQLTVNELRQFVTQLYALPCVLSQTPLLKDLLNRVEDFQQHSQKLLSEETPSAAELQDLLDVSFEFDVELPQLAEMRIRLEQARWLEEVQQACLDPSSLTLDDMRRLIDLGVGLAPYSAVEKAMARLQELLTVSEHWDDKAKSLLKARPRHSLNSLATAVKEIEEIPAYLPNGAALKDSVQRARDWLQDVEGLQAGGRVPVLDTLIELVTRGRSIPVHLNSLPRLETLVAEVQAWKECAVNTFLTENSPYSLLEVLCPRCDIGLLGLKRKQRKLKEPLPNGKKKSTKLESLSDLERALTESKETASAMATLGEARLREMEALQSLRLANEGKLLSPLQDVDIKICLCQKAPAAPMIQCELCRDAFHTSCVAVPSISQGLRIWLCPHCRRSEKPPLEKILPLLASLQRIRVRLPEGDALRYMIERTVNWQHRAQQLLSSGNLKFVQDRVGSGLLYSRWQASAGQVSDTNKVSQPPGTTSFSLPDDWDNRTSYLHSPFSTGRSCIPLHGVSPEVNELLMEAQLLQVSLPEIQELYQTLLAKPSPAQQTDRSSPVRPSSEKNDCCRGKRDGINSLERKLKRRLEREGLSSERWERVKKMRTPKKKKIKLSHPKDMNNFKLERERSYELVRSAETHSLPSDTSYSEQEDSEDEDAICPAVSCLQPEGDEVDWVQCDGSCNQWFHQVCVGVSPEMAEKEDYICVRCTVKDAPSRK
In short: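 Compound dilutions met 200 nM (final) KDM5BΔAP for 10 min at room temperature before substrate addition. The substrate mix held 12.5 µM H3K4me3 with cofactors 25 µM α-ketoglutarate and 50 µM Fe²⁺. NADH signal gain over 30 min defined activity.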
Note: nearly all actives have a fitted effect of over 70% in size.
Potency is the fitted concentration of half-maximal effect; tags give direction and shape of the fitted curve.
Throughout, for activity change, negative = inhibition: 0% is about no effect.

Compound | Potency | activity change, negative = inhibition
CSc1ccc(CNc2ncncc2-c2nc(-c3ccccc3)no2)cc1 | inconclusive: 11.2 µM [inhibitor, partial curve] | –
Cc1nnc2n1CCC(N(C)C(=O)CCc1ccccc1)CC2 (stereo not given) | inconclusive: 17.8 µM [inhibitor, partial curve, poor fit] | –
Cc1ccc(S(=O)(=O)CC(=O)Nc2cc(C)on2)cc1 | – | inactive: 7.51%
CCOc1ccc(/C=C/C(=O)c2cccc(Br)c2)cc1OC | inconclusive: 22.4 µM [inhibitor, partial curve, poor fit] | –
C[S+](=O)([O-])c1ccc(-c2cc(-c3cccnc3)c3cncn3c2)cc1 | active: 39.8 µM | –
O=C(NCc1ccc(Cl)cc1)C1CCCN(c2nc3ccccc3n3cccc23)C1 (stereo not given) | inconclusive: 2 µM [inhibitor, partial curve, poor fit] | –
CCCn1c2ccccc2c2cnn(CC(=O)NCCc3ccccc3)c(=O)c21 | inconclusive: 25.1 µM [inhibitor, single point] | –
CC(C)CNc1nc(C(=O)Nc2nnc(C3CC3)s2)cs1 | inconclusive: 1.78 µM [inhibitor, full curve, poor fit] | –
COC(=O)c1ccc(Cn2c(=O)cc(C(F)(F)F)c3c(C)nn(C)c32)cc1 | inconclusive: 15.8 µM [inhibitor, partial curve, poor fit] | –
CN(C)CCNC(=O)c1nc2nc(-c3ccccc3)c(Nc3ccc(F)cc3)cc2n1C | inconclusive: 35.5 µM [inhibitor, partial curve, poor fit] | –
S=C1NN=C(c2ccccc2)C(c2ccccc2)N1 (stereo not given) | inconclusive: 31.6 µM [inhibitor, partial curve, poor fit] | –
Cn1nc(C(F)(F)F)c(-c2cccc(C(F)(F)F)c2)c1NC(=O)c1cccnc1 | – | inactive: 7.99%
O=C(NC1CCCC1)c1cnn2c(C(F)(F)F)cc(-c3ccco3)nc12 | inconclusive: 35.5 µM [inhibitor, single point] | –
O=C(COc1ccccc1)N1CCCC(c2noc(COc3ccccc3)n2)C1 (stereo not given) | – | inactive: -7%
COC(=O)COc1ccc(-c2nnc(Nc3ccc(OC)cc3)c3ccccc23)cc1 | – | inactive: -29%
CCc1noc(CN(CC)C(=O)c2ccccc2NCc2sccc2C)n1 | inconclusive: 25.1 µM [inhibitor, single point] | –
Cc1c(CCO)c(=O)n2c([nH]c3ccccc32)c1C#N | inconclusive: 28.2 µM [inhibitor, partial curve, poor fit] | –
CCOc1ccccc1CC1C(=O)Nc2ccc(Br)cc21 (stereo not given) | inconclusive: 5.62 µM [inhibitor, partial curve, poor fit] | –
CC(=O)c1ccc(S(=O)(=O)N2CCN(C(=O)c3cc(C)n(C(C)C)c3C)CC2)cc1 | – | inactive: -25%
COCCCNC(=O)c1cc(C2CC2)nc2onc(C3CCCN3)c12 (stereo not given) | inconclusive: 56.2 µM [inhibitor, partial curve, poor fit] | –
CC1CCC(c2nnc(-c3ccccc3Cl)o2)CC1 (stereo not given) | – | inactive: 8.94%
Cc1ccc(NC(=O)N2CCN(c3nnnn3-c3ccc(Cl)c(C)c3)CC2)cc1F | – | inactive: -10.8% [at 115 µM]
O=C(NC1CCCCCCC1)C1CCCN(c2cn[nH]c(=O)c2)C1 (stereo not given) | – | inactive: 22.2%
CCc1ccc(Nc2ncnc3c2cnn3-c2cc(Cl)ccc2C)cc1 | inconclusive: 39.8 µM [inhibitor, partial curve, poor fit] | –

Compound | Potency | activity change, negative = inhibition
C[C@@H](NC(=O)C[C@@H]1c2nc(NC(=O)c3ccco3)sc2C[C@@H]2[C@](C)(CO)[C@H](O)CC[C@]21C)c1ccccc1 | inconclusive: 28.2 µM [inhibitor, single point] | –
COc1ccccc1-c1cc(C(=O)N2CCCCC2C)no1 (stereo not given) | inconclusive: 31.6 µM [inhibitor, single point] | –
O=C(NCc1cccnc1)c1nc(-c2ccc(Cl)cc2)c2ccccn12 | active: 28.2 µM | –
COc1ccc(CNC(=O)c2cc3n(n2)CC(c2ccc4c(c2)OCO4)OC3)cc1OC (stereo not given) | active: 25.1 µM | –
COC(=O)COc1ccc(C2C3=C(CC(C)(C)CC3=O)OC3=C2C(=O)CC(C)(C)C3)cc1 | – | inactive: 3.92%
CCN(CC)S(=O)(=O)c1nc(C)c(Cl)c(C)c1C#N | – | inactive: 5.24%
CCOc1ccccc1NC(=O)CSc1nnc2c3cc(-c4ccc(Cl)cc4)nn3ccn12 | – | inactive: 17.8%
COc1ccc2c(C)c(CCC(=O)Nc3ccc(Br)c(C)c3)c(=O)oc2c1 | inconclusive: 10 µM [inhibitor, partial curve, poor fit] | –
COc1ccc(OC)c(CN2CCCn3nc(C)c(-c4cnccc4C)c32)c1 | active: 31.6 µM | –
Cc1cccc(C(=O)N/N=C2/CC(=O)CC(C)(C)C2)c1 | inconclusive: 25.1 µM [inhibitor, single point] | –
Cc1nnnn1Cc1ccc(C(=O)N2CCc3nc(-c4cn[nH]c4)[nH]c3C2)cc1 | – | inactive: -16.6%
CC(C)S(=O)(=O)NCC1Cn2cccc2CN1Cc1ccccc1 (stereo not given) | inconclusive: 22.4 µM [inhibitor, partial curve, poor fit] | –
CCc1ccc(C(=O)N2CCCC2)cc1 | – | inactive: 13%
CCOC(=O)N1CCC(NC(=O)c2ccc3c(c2)N(Cc2ccc(F)cc2)C(=O)c2ccccc2S3(=O)=O)CC1 | – | inconclusive: -40.3% [inhibitor]
CCNc1c(NC(=O)Nc2cc(OC)cc(OC)c2)c(=O)oc2ccccc12 | inconclusive: 10 µM [inhibitor, partial curve, poor fit] | –
Cc1ccc2c(=O)cc(C(=O)NCC(c3ccc(C)o3)N3CCC(C)CC3)oc2c1 (stereo not given) | – | inactive: 12.1%
COc1ccc(CNC(=O)CCS(=O)(=O)c2ccc3c(c2)oc(=O)n3C)cc1 | – | inactive: -9.34%
Cc1ccc(NC(=O)Nc2ccc(C)n(CC(=O)NC(C)c3cccnc3)c2=O)cc1 (stereo not given) | – | inactive: -24.7%
CN(C)C(=O)c1ccnc(-c2nnc3ccc(N4CCCCC4)nn23)c1 | – | inactive: -11.1% [at 86.2 µM]
CCc1ccc(-c2csc(/C(C#N)=C/Nc3c(C)cc(C)cc3C)n2)cc1 | – | inactive: 6.69%
CC(C)(C)c1ccc(O)c(NC(=O)CC(C(=O)O)c2ccc(F)cc2)c1 (stereo not given) | – | inactive: 13.1%
CCn1cc(CN2CCCC(COc3ccccc3C(=O)N3CCCC3)C2)c2ccccc21 (stereo not given) | – | inactive: -28.3%
CO[C@H]1[C@H](NC(=O)Cn2nc(C)c(C)c2C)c2ccccc2C12CCNCC2 | inconclusive: 10 µM [inhibitor, partial curve] | –
Cc1noc(-c2ccccc2Cl)c1C(=O)NCCOc1ccccc1 | – | inactive: 2.49%

Compound | Potency | activity change, negative = inhibition
Cc1ccc(N(Cc2cccs2)C(=O)c2ccc(Br)o2)cc1 | inconclusive: 1.12 µM [inhibitor, full curve, poor fit] | –
Cc1ccsc1[C@@H]1CCN(Cc2ccc(C#CC(C)(C)O)cc2)C[C@H]1O | inconclusive: 28.2 µM [inhibitor, partial curve, poor fit] | –
Cc1nn(-c2ccc(C(F)(F)F)cc2)c(C)c1[C@@H]1C=C[C@@H](NC(=O)c2ccc(N(C)C)cc2)C1 | active: 31.6 µM | –
CCCNC(=O)NC(=O)CN(C)Cc1ccccc1Br | – | inactive: 14.6%
Cn1nc(C(=O)NCc2ccc(Cl)cc2)c2c1-c1ccccc1SC2 | inconclusive: 6.31 µM [inhibitor, partial curve, poor fit] | –
COC(=O)c1ccc(NC(=O)Cn2c(C)cc3nc4n(c(=O)c32)CCCCC4)cc1 | – | inactive: 20.6%
S=c1[nH]nc(-c2cc(-c3ccccc3)n[nH]2)n1/N=C/c1c(Cl)cccc1Cl | inconclusive: 10 µM [inhibitor, full curve, poor fit] | –
COCCNC(=O)Cc1c(C)c2c(cc(C)c3c(C(C)(C)C)coc32)oc1=O | inconclusive: 28.2 µM [inhibitor, partial curve, poor fit] | –
COc1ccc(C2=C(C)C(=O)N(Cc3ccc(C(=O)NCc4ccc(C)cc4)cc3)S2(=O)=O)cc1 | inconclusive: 35.5 µM [inhibitor, partial curve, poor fit] | –
COc1ccc(-c2ccc3c(c2)C(=O)N2C[C@@H](NS(=O)(=O)c4ccc(F)cc4)C[C@H]2C(=O)N3)c(OC)c1 | active: 35.5 µM | –
COc1cccc(Nc2cc3[nH]ccc3c(C(=O)NCc3c(C)cc(C)[nH]c3=O)n2)c1 | inconclusive: 5.62 µM [inhibitor, full curve] | –
Cc1cc(=O)oc2cc(OCC(=O)N(C)C3(C#N)CCCCC3)ccc12 | inconclusive: 10 µM [inhibitor, full curve, poor fit] | –
CNC(=O)CN(C)S(=O)(=O)N1CCCC(C)C1 (stereo not given) | – | inactive: 3.86%
O=C(N/N=C(\CC(=O)c1cccs1)C(F)(F)F)c1cccnc1 | inconclusive: 14.1 µM [inhibitor, partial curve, poor fit] | –
Cc1cccc(N2CCN(C(=O)C3CCCN(S(C)(=O)=O)CCC(=O)NCC3)CC2)c1 (stereo not given) | – | inactive: -31.2%
C[S+](=O)([O-])N1Cc2ccccc2CC2(CCCCN2CC2CCOCC2)C1 (stereo not given) | inconclusive: 56.2 µM [inhibitor, partial curve, poor fit] | –
c1cc2c(cc1C1CCCN1Cc1nnnn1C1CC1)OCCO2 (stereo not given) | – | inactive: 13.8%
CCOc1cc(-c2noc(-c3nnn4c3COC(c3ccc(F)cc3)C4)n2)ccc1OC (stereo not given) | active: 25.1 µM | –
CCN(CC)S(=O)(=O)c1ccc(-c2nc(C#N)c(N3CCCCC3)o2)cc1 | inconclusive: 2 µM [inhibitor, full curve, poor fit] | –
COc1ccccc1CNC(=O)CCC1CCCN(S(=O)(=O)c2ccccc2F)C1 (stereo not given) | inconclusive: 25.1 µM [inhibitor, partial curve, poor fit] | –
N#Cc1cccc(-c2cn3c(n2)N(C(=O)c2ccco2)CCC3)c1 | active: 25.1 µM | –
CCOC(=O)c1ccccc1NC(=O)CSc1ccc(-c2ccccn2)nn1 | inconclusive: 39.8 µM [inhibitor, single point] | –
